Data published in patent publication US20250127169A1, “PLANTS HAVING INCREASED TOLERANCE TO HERBICIDES” (BASF Agricultural Solutions Seed US LLC, priority 2021, published 2025).
Several values for one entry are separate records, joined by “and”; a condition that tells them apart may be missing. Equal entries are not always repeated. Where two headings read alike, the source gives them in different places.

Key:
Format in all cases: in vivo
[1] = tested on: Transgenic T2 or T4 Soybean plants harbouring PPO inhibitor tolerance trait (L397E + F420M); conditions: post, 3DAT, single plants
Protocol: (§1) Soybean cv Jake is transformed as previously described by Siminszky et al., Phytochem Rev. 5:445-458 (2006). After regeneration, transformants are transplanted to soil in small pots, placed in growth chambers (16 hr day/8 hr night; 25° C. day/23° C. night; 65% relative humidity; 130-150 microE m-2 s-1) and subsequently tested for the presence of the T-DNA via Taqman analysis. After a few weeks, healthy, transgenic positive, single copy events are transplanted to larger pots and allowed to grow in the growth chamber. An optimal shoot for cutting is about 3-4 inches tall, with at least two nodes present. Each cutting is taken from the original transformant (mother plant) and dipped into rooting hormone powder (indole-3-butyric acid, IBA). The cutting is then placed in oasis wedges inside a bio-dome. The mother plant is taken to maturity in the greenhouse and harvested for seed. Wild type cuttings are also taken simultaneously to serve as negative controls. The cuttings are kept in the bio-dome for 5-7 days and then transplanted to 3 inch pots and then acclimated in the growth chamber for two more days. Subsequently, the cuttings are transferred to the greenhouse, acclimated for approximately 4 days prior to spray. T0 or 2-week old T1 plants are sprayed with a treatment of the phenyluracils as disclosed SUPRA and optionally photosynthesis inhibitor diuron as negative control. Herbicide injury evaluations are taken at 2, 7, 14 and 21 days after treatment.
(§2) Evaluation performed 3 Days After Treatment (DAT) and 1 Week after Treatment (WAT) and shown as injury (0-9) relative to non-transgenic treated plants. Injury Scale: 0-9, 0=no injury, 9=maximum injury. Note: segregating lines.
(§3) The following gives a definition of the injury scores measured above: • Score Description of injury • 0 No Injury • 1 Minimal injury, only a few patches of leaf injury or chlorosis. • 2 Minimal injury with slightly stronger chlorosis. Overall growth points remain undamaged. • 3 Slightly stronger injury on secondary leaf tissue, but primary leaf and growth points are still undamaged. • 4 Overall plant morphology is slightly different, some chlorosis and necrosis in secondary growth points and leaf tissue. Stems are intact. Regrowth is highly probable within 1 week. • 5 Overall plant morphology is clearly different, some chlorosis and necrosis on a few leaves and growth points, but primary growth point is intact. Stem tissue is still green. Regrowth is highly probably within 1 week. • 6 Strong injury can be seen on the new leaflet growth. Plant has a high probability to survive only through regrowth at different growth points. Most of the leaves are chlorotic/necrotic but stem tissue is still green. May have regrowth but with noticeable injured appearance. • 7 Most of the active growth points are necrotic. There may be a single growth point that could survive and may be partially chlorotic or green and partially necrotic. Two leaves may still be chlorotic with some green; the rest of the plant including stem is necrotic. • 8 Plant will likely die, and all growth points are necrotic. One leaf may still be chlorotic with some green. The remainder of the plant is necrotic. • 9 Plant is dead.

[2] = tested on: Transgenic T2 or T4 Soybean plants harbouring PPO inhibitor tolerance trait (L397E + F420V); conditions: post, single plants
Protocol: as §1, §2, §3

[3] = tested on: Transgenic T2 or T4 Soybean plants harbouring PPO inhibitor tolerance trait (L397Q + F420M); conditions: post, single plants
Protocol: as §1, §2, §3

COC(=O)C(OC)Oc1ccccc1Oc1cc(-n2c(=O)cc(C(F)(F)F)n(C)c2=O)c(F)cc1Br (stereo not drawn) [Phenyluracil No. 1]
injury (0-9) ([1]; soybean RTP10052 RAEYOR L397E + F420M, 25 g/ha + 1% MSO): 0 (No Injury)
injury (0-9) ([1]; soybean RTP10052 RAEYOR L397E + F420M, 50 g/ha + 1% MSO): 1 (Minimal injury, only a few patches of leaf injury or chlorosis.)
injury (0-9) ([1]; soybean RTP10052 RAEZOR L397E + F420M, 25 g/ha + 1% MSO): 0 (No Injury)
injury (0-9) ([1]; soybean RTP10052 RAEZOR L397E + F420M, 50 g/ha + 1% MSO): 0 (No Injury)
injury (0-9) ([2]; soybean RTP10050 RAEYDZ L397E + F420V, 25 g/ha + 1% MSO, 1WAT): 0 (No Injury)
injury (0-9) ([2]; soybean RTP10050 RAEYDZ L397E + F420V, 25 g/ha + 1% MSO, 3DAT): 0 (No Injury)
injury (0-9) ([2]; soybean RTP10050 RAFANZ L397E + F420V, 25 g/ha + 1% MSO, 1WAT): 0 (No Injury)
injury (0-9) ([2]; soybean RTP10050 RAFANZ L397E + F420V, 100 g/ha + 1% MSO, 1WAT): 0 (No Injury)
injury (0-9) ([2]; soybean RTP10050 RAFANZ L397E + F420V, 100 g/ha + 1% MSO, 3DAT): 1 (Minimal injury, only a few patches of leaf injury or chlorosis.)
injury (0-9) ([3]; soybean RTP10053 RAEWGZ L397Q + F420M, 50 g/ha + 1% MSO, 1WAT): 0 (No Injury)
injury (0-9) ([3]; soybean RTP10053 RAEWGZ L397Q + F420M, 100 g/ha + 1% MSO, 1WAT): 1 (Minimal injury, only a few patches of leaf injury or chlorosis.) and 2
injury (0-9) ([3]; soybean RTP10053 RAEWGZ L397Q + F420M, 100 g/ha + 1% MSO, 3DAT): 1 (Minimal injury, only a few patches of leaf injury or chlorosis.) and 2
injury (0-9) ([3]; soybean RTP10053 RAEWHA L397Q + F420M, 100 g/ha + 1% MSO, 1WAT): 1 (Minimal injury, only a few patches of leaf injury or chlorosis.) and 2
injury (0-9) ([3]; soybean RTP10053 RAEWHA L397Q + F420M, 100 g/ha + 1% MSO, 3DAT): 2 and 1 (Minimal injury, only a few patches of leaf injury or chlorosis.)
injury (0-9) ([3]; soybean RTP20031 RBGRKB L397Q + F420M, 25 g/ha + 1% MSO, 1WAT): 1 (Minimal injury, only a few patches of leaf injury or chlorosis.)
injury (0-9) ([3]; soybean RTP20031 RBGRKB L397Q + F420M, 25 g/ha + 1% MSO, 3DAT): 2 and 1 (Minimal injury, only a few patches of leaf injury or chlorosis.)
injury (0-9) ([3]; soybean RTP20031 RBGRKB L397Q + F420M, 50 g/ha + 1% MSO, 1WAT): 2 and 1 (Minimal injury, only a few patches of leaf injury or chlorosis.)
injury (0-9) ([3]; soybean RTP20031 RBGRKB L397Q + F420M, 50 g/ha + 1% MSO, 3DAT): 3 and 2
injury (0-9) ([3]; soybean RTP20031 RBGRKB L397Q + F420M, 100 g/ha + 1% MSO, 1WAT): 2 and 4 and 3
injury (0-9) ([3]; soybean RTP20031 RBGRKB L397Q + F420M, 100 g/ha + 1% MSO, 3DAT): 2 and 4 and 3
injury (0-9) ([3]; soybean RTP20031 RBGRTK L397Q + F420M, 50 g/ha + 1% MSO, 1WAT): 1 (Minimal injury, only a few patches of leaf injury or chlorosis.) and 2
injury (0-9) ([3]; soybean RTP20031 RBGRTK L397Q + F420M, 50 g/ha + 1% MSO, 3DAT): 1 (Minimal injury, only a few patches of leaf injury or chlorosis.) and 2
injury (0-9) ([3]; soybean RTP20031 RBGRTK L397Q + F420M, 100 g/ha + 1% MSO, 1WAT): 3 and 4
injury (0-9) ([3]; soybean RTP20031 RBGRTK L397Q + F420M, 100 g/ha + 1% MSO, 3DAT): 3 and 4
injury (0-9) ([3]; soybean RTP20032 RBHRVN L397Q + F420M, 50 g/ha + 1% MSO, 1WAT): 1 (Minimal injury, only a few patches of leaf injury or chlorosis.)
injury (0-9) ([3]; soybean RTP20032 RBHRVN L397Q + F420M, 50 g/ha + 1% MSO, 3DAT): 2 and 1 (Minimal injury, only a few patches of leaf injury or chlorosis.)
injury (0-9) ([3]; soybean RTP20032 RBHRVN L397Q + F420M, 100 g/ha + 1% MSO, 3DAT): 3 and 4 and 2
injury (0-9) ([3]; soybean RTP20032 RBHSKR L397Q + F420M, 50 g/ha + 1% MSO, 1WAT): 1 (Minimal injury, only a few patches of leaf injury or chlorosis.) and 2
injury (0-9) ([3]; soybean RTP20032 RBHSKR L397Q + F420M, 100 g/ha + 1% MSO, 1WAT): 3
injury (0-9) ([3]; soybean RTP20032 RBHSKR L397Q + F420M, 100 g/ha + 1% MSO, 3DAT): 3
